# Structures can show the parent of a compound that is named as a salt. ± gives the standard deviation of the averaged measurements. Whole data set: some 2,000 compounds, median “cell viability relative to DMSO control (compound alone)” near 0.98, cut for the lowest 2% near 0.23. The list shows a part of the results.
# Tested on: PDC-DUC18828
# Assay: cell viability relative to DMSO control (compound alone) (fraction); PDC-DUC18828 is a patient-derived cholangiocarcinoma cell line; higher = less growth inhibition
# Conditions: 1 µM; 72 h
# Experimental: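 Selleck Bioactive library screen in the patient-derived FGFR2-G3BP2 fusion-positive ICC cell line PDC-DUC18828 (500 cells/well). Each compound was tested at 1 uM alone, in triplicate, for 72 h. Viability was read by CellTiter-Glo and normalised to plate DMSO controls.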
row,SMILES,cell viability
1,CO[C@@H](C(=O)N1Cc2[nH]nc(NC(=O)c3ccc(N4CCN(C)CC4)cc3)c2C1)c1ccccc1,0.532 ± 0.011
2,Cc1c(Cc2ccc3ccccc3n2)c2cc(F)ccc2n1CC(=O)O,0.933 ± 0.051
3,C=CC(=O)N1CCC(Oc2cc3c(Nc4ccc(Cl)c(Cl)c4F)ncnc3cc2OC)CC1 [Poziotinib (HM781-36B)],0.62 ± 0.041
4,Brc1ccc([C@H]2CN3CCSC3=N2)cc1 [(-)-p-Bromotetramisole Oxalate],1 ± 0.069
5,CC1(C)CCC(CN2CCN(c3ccc(C(=O)NS(=O)(=O)c4ccc(NCC5CCOCC5)c([N+](=O)[O-])c4)c(Oc4cnc5[nH]ccc5c4)c3)CC2)=C(c2ccc(Cl)cc2)C1,0.976 ± 0.072
6,CCCCCCCCCCC[C@@H](C[C@@H]1OC(=O)[C@H]1CCCCCC)OC(=O)[C@H](CC(C)C)NC=O [Orlistat],0.955 ± 0.034
7,CS(=O)(=O)c1cccc(CNc2nc(Nc3ccc4c(c3)CCC(=O)N4)ncc2C(F)(F)F)c1,0.898 ± 0.02
8,Cc1ccc(NC(=O)c2ccc(CN3CC[C@H](N(C)C)C3)c(C(F)(F)F)c2)cc1Nc1nccc(-c2cncnc2)n1 [Bafetinib (INNO-406)],0.949 ± 0.028
9,O=NO [Sodium Nitrite],0.985 ± 0.044
10,O=C(O)CCC(=O)Nc1ccc(Br)cn1 [Bikinin],0.918 ± 0.019
11,COc1ccc(C(=O)Nc2sc3c(c2C(N)=O)CCCC3)cc1OC,1.13 ± 0.022
12,CC(=O)[C@@]1(O)CC[C@H]2[C@@H]3CCC4=CC(=O)CCC4=C3[C@@H](c3ccc(N(C)C)cc3)C[C@@]21C [Ulipristal],0.931 ± 0.01
13,CC(C)(Oc1ccc(Cl)cc1)C(=O)O [Clofibric Acid],0.997 ± 0.057
14,COc1cc(Nc2ncc(F)c(Nc3ccc4c(n3)NC(=O)C(C)(C)O4)n2)cc(OC)c1OC [R406 (free base)],0.916 ± 0.058
15,COc1cc(Nc2ncc(F)c(Nc3ccc4c(n3)NC(=O)C(C)(C)O4)n2)cc(OC)c1OC,0.945 ± 0.04
16,COc1cc2ncc(-c3ccccc3)nc2cc1OC [Tyrphostin AG 1296],1.14 ± 0.05
17,CCC[C@H](Nc1nc(-c2ccc(NC(=O)NCC)c(OC)c2)ncc1C)c1cccnc1 [CYT997 (Lexibulin)],0.291 ± 0.024
18,CC(C)(Sc1cc(C(C)(C)C)c(O)c(C(C)(C)C)c1)Sc1cc(C(C)(C)C)c(O)c(C(C)(C)C)c1 [Probucol],1.038 ± 0.0099
19,C=CC(=O)Nc1cccc(Nc2nc(Nc3ccc(N4CCN(C(C)=O)CC4)cc3OC)ncc2C(F)(F)F)c1,0.932 ± 0.059
20,CS(=O)(=O)CCNCc1ccc(-c2ccc3ncnc(Nc4ccc(OCc5cccc(F)c5)c(Cl)c4)c3c2)o1,0.975 ± 0.037
21,Cn1ccnc1S [Methimazole],1.01 ± 0.031
22,Nc1c(Br)cc(Br)cc1CN[C@H]1CC[C@H](O)CC1 [Ambroxol HCl],0.925 ± 0.061
23,N#CC(c1ccc(Cl)cc1)c1c(Cl)cc(-n2ncc(=O)[nH]c2=O)cc1Cl (stereo unspecified) [Diclazuril],1.12 ± 0.028
24,COc1cc(OC)c(C(=O)CCCN2CCCC2)c(OC)c1 [Buflomedil HCl],0.996 ± 0.029
25,COc1ccc(CCNCc2ccc(OCc3ccc(Cl)nc3)c(OC)c2)cc1OC,0.946 ± 0.037
26,CCOc1ccc(Cc2cc([C@@H]3O[C@H](SC)[C@@H](O)[C@H](O)[C@H]3O)ccc2Cl)cc1 [Sotagliflozin (LX4211)],1.05 ± 0.061

row,SMILES,cell viability
1,CC(C)(C)C(=O)OCOP(=O)(COCCn1cnc2c(N)ncnc21)OCOC(=O)C(C)(C)C [Adefovir Dipivoxil],0.695 ± 0.049
2,CN1CCC(=C2c3ccccc3CC(=O)c3sccc32)CC1 [Ketotifen Fumarate],0.972 ± 0.036
3,COc1ccccc1N1CCN(CC(O)COc2cccc3ccccc23)CC1 (stereo unspecified) [Naftopidil],0.989 ± 0.04
4,COc1ccccc1N1CCN(CC(O)COc2cccc3ccccc23)CC1 (stereo unspecified) [Naftopidil DiHCl],0.959 ± 0.049
5,Nc1nc(N)c2nc(-c3cccc(O)c3)cnc2n1,0.791 ± 0.027
6,"C/C=C1\NC(=O)[C@H]2CSSCC/C=C/[C@H](CC(=O)N[C@H](C(C)C)C(=O)N2)OC(=O)[C@H](C(C)C)NC1=O [Romidepsin (FK228, Depsipeptide)]",0.0573 ± 0.0029
7,O=C(O)CC[C@H]1CC[C@@](c2cc(F)ccc2F)(S(=O)(=O)c2ccc(Cl)cc2)CC1,1.08 ± 0.054
8,COc1ccc2[nH]c([S+]([O-])Cc3ncc(C)c(OC)c3C)nc2c1 (stereo unspecified) [Omeprazole],0.928 ± 0.022
9,COc1nc(-c2ccc3c(c2)OCO3)n(-c2ccc(NC(=O)CSc3ccccc3)cc2)n1 [SecinH3],0.89 ± 0.011
10,CCS(=O)(=O)Nc1ccc2c(c1)/C(=C(/Nc1ccc(CN3CCCCC3)cc1)c1ccccc1)C(=O)N2 [Hesperadin],0.258 ± 0.036
11,O=C(Nc1ccc(-c2ccnc(Nc3ccc(N4CCOCC4)cc3)n2)cc1)C1CCCN1 (stereo unspecified),0.987 ± 0.078
12,Nc1cccc2c1CN(C1CCC(=O)NC1=O)C2=O (stereo unspecified) [Lenalidomide (CC-5013)],0.999 ± 0.023
13,NC(=S)N/N=C/c1ncccc1N [Triapine],0.885 ± 0.057
14,O=C(NS(=O)(=O)c1ccc(Br)s1)c1ccc(Cl)cc1Cl [Tasisulam],1.07 ± 0.043
15,C/C(=N\NC(=O)c1cccc(S(=O)(=O)N2CCOCC2)c1)c1cc(Cl)ccc1O,0.497 ± 0.046
16,COc1ccc(CNC(=O)Nc2ncc([N+](=O)[O-])s2)cc1,0.975 ± 0.08
17,Cn1c2ccccc2c2c3c(c4c5ccccc5n(CCC#N)c4c21)CNC3=O,0.96 ± 0.039
18,OCCOCCN1CCN(C(c2ccccc2)c2ccc(Cl)cc2)CC1 (stereo unspecified) [Hydroxyzine 2HCl],1.08 ± 0.057
19,Cc1ccccc1N1C(=O)c2cc(S(N)(=O)=O)c(Cl)cc2NC1C (stereo unspecified) [Metolazone],1.07 ± 0.052
20,Cc1cc(-n2c(=O)[nH]c(=O)n(C)c2=O)ccc1Oc1ccc(SC(F)(F)F)cc1 [Toltrazuril],0.957 ± 0.046
21,[I-].[K+] [Potassium Iodide],1.04 ± 0.044
22,CC(=O)N1CCN(CCOc2ccc(C3CCN(C4=Nn5c(nnc5C(F)(F)F)CC4)CC3)cc2)CC1,1.01 ± 0.026
23,C=CC(=O)N1CCC[C@@H](n2nc(-c3ccc(Oc4ccccc4)cc3)c3c(N)ncnc32)C1,0.989 ± 0.045
24,O=C(O)c1ccccc1C(=O)Nc1ccc(-c2ccccc2)cc1 [Kartogenin],0.9 ± 0.068
25,CC1=C(CC(=O)O)c2cc(F)ccc2/C1=C\c1ccc([S+](C)[O-])cc1 (stereo unspecified) [Sulindac],0.973 ± 0.063

# — the supplement of paper PMC9588766
